In PubChem BioAssay AID463254 (National Center for Advancing Translational Sciences (NCATS), 2010):
Where “and” joins values, the source holds several entries; their conditions need not be identical. Equal values may be shown once. Out of some 330,000 compounds screened, about 40 (0.01%) were called active. Calls follow the shape of the dose curve; as a rule, active = well fitted inhibition curve with a large enough effect; inconclusive = small, poorly fitted or top-dose-only effect, or effect the other way; inactive = flat fitted curve, though single readings scatter. Only a part is listed here, and it is no random draw.

Target: Ubiquitin carboxyl-terminal hydrolase 2 (Homo sapiens) (UniProt O75604)
Test: qHTS Assay for Inhibitors of Ubiquitin-specific Protease USP2a Using CHOP2 as the Reporter
Settings: USP2 core, Ub-CHOP2 coupled fluorogenic reporter, 485/531; at 38.3 µM (top of the series)
Source text: NIH Molecular Libraries Screening Centers Network [MLSCN] NIH Chemical Genomics Center [NCGC] MLSCN Grant: XO1-MH079852-01 PI Name: Nicholson, Ben. Progenra Inc, Malvern, PA NCGC Assay Overview: Homeostasis of cellular proteins is maintained through a combination of synthesis and degradation. The pathway that accounts for the majority of protein degradation is the ubiquitin-proteasomal pathway. Ubiquitin (Ub) is highly conserved in all cells and the generation of a multi-Ub chain typically targets proteins for degradation by the proteasome. However, ubiquitination is highly reversible and dynamic. Deubiquitination, the reverse process, is catalyzed through the action of enzymes referred to as isopeptidases or deubiquitinating enzymes (DUBs). This group of enzymes is collectively responsible for maintaining adequate pools of free ubiquitin and regulating the ubiquitination status of cellular proteins. The class of DUBs referred to as the ubiquitin-specific proteases (USP) family functions endoproteolytically to cleave Ub chains from a wide range of protein substrates. USP2a deubiquitinates fatty acid synthase (FASN) which has recently been identified as an emerging oncology target. To identify inhibitors of USP2a a cell-free assay was employed. […] The reporter enzyme chosen is an enterokinase called CHOP2, which is activated when the Ub is cleaved by USP2. The free and now activated reporter can subsequently act on its reporter substrate. Thus, this coupled assay gives a fluorescent read-out at excitation/emission wavelengths of 485/531. The assay was developed by Progenra, Inc. and has been licensed for sale by LifeSensors, Inc. as Ub-CHOP2-Reporter-Kit (#PR1101).
NCGC Assay Protocol Summary: The assay buffer, prepared fresh at the day of the assay, contains 20mM Tris-HCl pH 8.0, 2mM CaCl2, 2mM beta-Mercaptoethanol, 0.05% CHAPS. 3ul of 20nM (10nM final) USP2 core, which is stored on ice, is dispensed into a medium-binding black solid Kalypsys 1,536 well plate using the Kalypsys dispenser. The assay plate is then pinned with 23nL compound with the Kalypsys pintool in columns 5-48. The controls are pinned as follows: column 1 two-fold dilutions of 2M NEM in duplicate; column 2 2M NEM (final concentration 38.2mM); column 3&4 DMSO. The assay plate is incubated at RT for 30min. Subsequently, 1.5uL of 100nM (25nM final) Ub-CHOP2 and 1.5uL of 100nM (25nM final) Reporter Substrate (both stored on ice and protected from light) were dispensed into the plate using the Kalypsys dispenser. Plates were read after 60min RT incubation on a ViewLux (Perkin Elmer) plate reader using the following wavelengths Ex 485nm /Em 531nm. Data were normalized to the to AC100 inhibition (NEM). Concentration-response curves were fitted to the normalized data and the concentration-response curves were then classified based on curve quality (r2), response magnitude and degree of measured activity. The time zero reading was used to flag fluorescence artifacts. Keywords: ubiquitination, deubiquitination, proteases, profluorescent, MLSMR, MLPCN, NIH Roadmap, qHTS, NCGC

Sequence of UniProt O75604 (O75604 whole entry, looked up): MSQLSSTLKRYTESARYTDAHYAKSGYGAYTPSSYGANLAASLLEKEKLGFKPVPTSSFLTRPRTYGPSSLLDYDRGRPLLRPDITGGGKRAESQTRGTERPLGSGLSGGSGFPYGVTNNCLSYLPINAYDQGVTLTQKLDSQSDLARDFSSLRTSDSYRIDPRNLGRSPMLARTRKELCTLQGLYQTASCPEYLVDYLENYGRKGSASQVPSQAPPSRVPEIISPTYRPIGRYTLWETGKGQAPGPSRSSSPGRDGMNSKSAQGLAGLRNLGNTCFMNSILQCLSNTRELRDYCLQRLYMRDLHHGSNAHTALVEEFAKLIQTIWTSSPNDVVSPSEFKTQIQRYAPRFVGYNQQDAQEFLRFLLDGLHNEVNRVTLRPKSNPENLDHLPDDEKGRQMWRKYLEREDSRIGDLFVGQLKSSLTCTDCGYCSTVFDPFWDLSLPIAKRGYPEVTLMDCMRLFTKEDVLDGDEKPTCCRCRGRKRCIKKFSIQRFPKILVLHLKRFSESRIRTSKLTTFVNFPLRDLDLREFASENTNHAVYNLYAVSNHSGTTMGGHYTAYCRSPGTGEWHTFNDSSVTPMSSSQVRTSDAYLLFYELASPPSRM

SMILES | activity change, negative = inhibition
CN(C)[C@@H]1C(=O)C(C(N)=O)=C(O)[C@@]2(O)C(=O)C3=C(O)c4c(O)cccc4[C@@](C)(O)[C@H]3[C@H](O)[C@@H]12 | inactive: 17% and inactive: 4.09%
CN(C)[C@@H]1C(=O)C(C(N)=O)=C(O)[C@@]2(O)C(=O)C3=C(O)c4c(O)cccc4[C@@](C)(O)C3[C@H](O)C12 (stereo partly specified) | inactive: 1.62%
CC[C@@H](CO)NC(=O)[C@@H]1C=C2c3cccc4c3c(cn4C)C[C@H]2N(C)C1 | inactive: 9.74% and inactive: 15.6%
Cc1ccc(-c2cc(-c3ccc(C)cc3)[n+](-c3ccc(C(=O)O)cc3)c(-c3ccc(C)cc3)c2)cc1 | inactive: 0.0167%
CC(C)n1c(/C=C/[C@@H](O)C[C@@H](O)CC(=O)O)c(-c2ccc(F)cc2)c2ccccc21 | inactive: 1.01%
CN(C)C1C(=O)C(C(N)=O)=C(O)C2(O)C(=O)C3=C(O)c4c(O)cccc4C(C)(O)C3C(O)C12 (stereo unspecified) | inactive: -3.94%
